About 800 (1.6%) of roughly 50,000 compounds showed an effect of 50% or more. Some of the results follow.

The assay has as its target Bcl-2-like protein 10 (Homo sapiens) (UniProt Q9HD36). Put plainly: TR3 peptide-Bcl-B binding displacers, biochemical primary FP assay, phenotype converters (AID 1240).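 Note: 0% = Bcl-B with tracer peptide and DMSO and 100% = tracer peptide lacking Bcl-B.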 Conditions: GST-Bcl-B / FITC-TR3 peptide fluorescence polarization; stronger effect = higher value; compound at 3.75 mg/L. (In general: Fluorescence polarisation rises when a labelled molecule tumbles more slowly, as on binding a larger partner.)
UniProt Q9HD36, sequence (Q9HD36 whole entry, looked up): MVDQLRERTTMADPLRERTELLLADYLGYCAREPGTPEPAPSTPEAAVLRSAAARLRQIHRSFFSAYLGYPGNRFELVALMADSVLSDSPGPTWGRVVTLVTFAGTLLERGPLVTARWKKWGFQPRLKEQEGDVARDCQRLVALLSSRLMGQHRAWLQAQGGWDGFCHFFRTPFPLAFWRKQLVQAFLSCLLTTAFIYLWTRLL
For `CCOC(=O)c1c(NC(=O)c2ccco2)sc(C(=O)Nc2cc(C(F)(F)F)ccc2Cl)c1C`, the displacement came out at 7.6%. Turning to `O=C(Nc1ccc(-c2nc3ccccc3c(=O)o2)cc1)c1cccc([N+](=O)[O-])c1`, the displacement was -5.5%. The same measure for `Cc1onc(-c2ccccc2Cl)c1C(=O)NN`: -10.7%. Regarding `CC1=C(C(=O)OCCc2ccccc2)C(c2ccccc2[N+](=O)[O-])NC(=O)N1C` (stereo not drawn), the displacement was -2.5%. Regarding `O=C(Cn1c(NCCO)nc2ccccc21)c1ccc([N+](=O)[O-])cc1`, the displacement was 9.3%. Consider `O=C(NCc1ccc2c(c1)OCO2)c1ccc(Cl)cc1[N+](=O)[O-]`, for which the displacement was -14.5%. As for `COc1ccc(OC)c(C2=C/C(=C\c3c(OC)ccc4ccccc34)C(=O)O2)c1`, the displacement worked out at 15.9%. `CN(C)c1cccc(C(=O)NCCc2ccccc2)c1`: the displacement was determined as 11.9%. For the molecule `O=S(=O)(Cc1ccc(Cl)cc1)CC(O)COc1ccc(Cl)cc1` (stereo not drawn), the displacement is -5.4%. With `COc1ccc(/C=C/C(=O)Nc2c(C)ccc3nsnc23)cc1`, the displacement was 0.8%. The same measure for `Cc1c(NC(=O)CC2=CCCC2)c(=O)n(-c2ccccc2)n1C`: -5.8%. As for `COc1ccc(N2C(=O)NC(=O)/C(=C\c3cc(OC)c(OC)cc3OC)C2=O)cc1`, the displacement was 3.3%. For `O=C(NC(=S)Nc1ccc(F)cc1)c1ccccc1`, the displacement is -8.5%. For `COC(=O)c1cc(NC(=O)c2ccc(C)c([N+](=O)[O-])c2)cc(C(=O)OC)c1`, the displacement was 6%. In the case of `COc1cccc(/C=N/NC(=O)C2CC(=O)N(c3ccc(C)cc3)C2)c1` (stereo not drawn), the displacement was -13.6%. As for `CSc1ccc(S(=O)(=O)N(CC(=O)Nc2ccccc2Cl)c2ccc(C)cc2)cc1`, the displacement was -12.8%. `O=C1CC(c2cccc(Cl)c2)c2cc(Br)c3ccccc3c2N1` (stereo not drawn): the displacement is -0.9%. For `COc1ccccc1OCCNC(=O)c1ccccc1I`, the displacement is 12.9%. For the molecule `O=C(CCCOc1ccc(Cl)cc1Cl)n1cnc2ccccc21`, the displacement is -5.4%. Take `Cc1ccc(NC(=O)Cc2ccc(F)cc2)cc1`: the displacement turned out to be 15%.

As for `COc1cccc(N2C(=O)c3ccc4c5c(ccc(c35)C2=O)C(=O)N(c2cccc(OC)c2)C4=O)c1`, the displacement was found to be 13.6%. For the molecule `CN(C)CCNc1ncnc2ccc(Br)cc12`, the displacement is -1.9%. On to `Cc1cccc(N=C2NC(=O)/C(=C3/C(=O)N(C)c4ccccc43)S2)c1C`, for which the displacement worked out at 13.8%. Consider `Cc1occc1C(=O)N/N=C/c1ccccc1`, for which the displacement was determined as 4.2%.

`C=CCN(c1ccccc1C(=O)O)S(=O)(=O)c1ccc(NC(=O)OC)cc1`: the displacement was -7%. On to `COC(=O)c1c(-c2ccc(Cl)cc2)csc1NC(=O)C1CCCCC1C(=O)O` (stereo not drawn), for which the displacement was found to be 1.9%. As for `O=C(Nc1cccc(Cl)c1Cl)C1COc2ccccc2O1` (stereo not drawn), the displacement is -2%. Under `COc1ccc(-n2c(C=C3C(=O)N(C)c4ccccc43)nc3ccccc3c2=O)cc1` stands -9.7%; under `Cc1ccc(NC(=O)C(=O)NCCN2CCN(S(C)(=O)=O)CC2)cc1`, 5.4%. Consider `COc1ccc(NC(=O)c2c(C)c(-c3ccc(C)cc3)nc3ccccc23)c(OC)c1`, for which the displacement is -2.9%.

`S=c1[nH]nc(COc2ccccc2)n1C1CCCCC1`: the displacement is -6.5%. The same measure for `Cc1nc(-c2ccccc2)nc2[nH]c(-c3ccccc3)cc(=O)c12`: 69.8%; for `CC(C)(C)c1ccc(O)c(N=Cc2cc(Cl)cc([N+](=O)[O-])c2O)c1`: -5.3%; for `N#C/C(=C/c1cc([N+](=O)[O-])ccc1Cl)C(=O)Nc1cccc(Br)c1`: -3.3%. As for `COC(=O)C(NC(=O)c1ccc(Br)cc1)c1ccccc1` (stereo not drawn), the displacement was -10.2%. For `CCOC(=O)C1=C(C)N=c2s/c(=C\c3ccccc3)c(=O)n2C1/C=C/c1ccccc1` (stereo not drawn), the displacement was 9.1%. Turning to `O=C(NC(=S)Nc1ccc(Cl)cc1Cl)c1cccs1`, the displacement was found to be 0.7%. For `COc1c(Cl)cc(C(=O)Nc2ccc(Cl)cn2)cc1Cl`, the displacement was 9.3%. Take `COC(=O)c1ccc(CSc2nc3sc4c(c3c(=O)n2-c2ccccc2)CCCC4)cc1`: the displacement was -4.5%.

Regarding `Cc1ccc(C(=O)Nc2cccc(Br)c2)cc1[N+](=O)[O-]`, the displacement is 10.7%. Under `COC(=O)c1ccc(NC(=O)c2ccc3nccnc3c2)cc1` stands 4.5%. The same measure for `O=C1CCC(=O)N1c1cccc(-c2nc3ccccc3o2)c1`: -9.6%; for `O=C1OC(c2ccc(Cl)cc2)=C/C1=C\c1ccc([N+](=O)[O-])cc1`: -13.3%. Turning to `O=C(Nc1ccc(Cl)c(Cl)c1)c1cnn2c1NC(c1ccc(Br)cc1)CC2C(F)(F)F` (stereo not drawn), the displacement stood at 14.3%. Turning to `COc1ccc(C(=O)NNC(=O)COc2ccc(C)cc2C)cc1`, the displacement was -1%.

Consider `CCc1cccc(C)c1NC(=O)CSc1nc2ccccc2[nH]1`, for which the displacement came out at 0.7%. Under `CCCCCc1nc2sc3c(c2c(=O)n1N)CC(C)(C)OC3` stands -1.5%. For `O=C1CC(N2CCC(Cc3ccccc3)CC2)C(=O)N1c1ccc(F)cc1` (stereo not drawn), the displacement came to 5.4%. `Fc1ccc(CCNC2CCN(Cc3ccccc3)CC2)cc1`: the displacement stood at 10%. Regarding `CCN(CC)CCN1C(=O)C(O)=C(C(=O)/C=C/c2ccccc2)C1c1cccc([N+](=O)[O-])c1` (stereo not drawn), the displacement was -10%. For `O=C1C2C3CCC(O3)C2C(=O)N1c1cccc([N+](=O)[O-])c1` (stereo not drawn), the displacement came out at 17.9%. As for `N#CCCN1c2ccccc2Sc2ccc(C(F)(F)F)cc21`, the displacement came out at 5%. With `COc1ccccc1/C=C(\NC(=O)c1ccccc1)C(=O)NCCc1c[nH]c2ccccc12`, the displacement was -3.2%. As to `Cc1ccc(-c2ccc(OCC(=O)Nc3cccc(C)c3)cc2)cc1`, the displacement was -4.4%. In the case of `Clc1cc(Cl)c2c(c1)C=C1CCCCC1(N1CCCCC1)O2` (stereo not drawn), the displacement worked out at 5.3%. The same measure for `CC(C)C(=O)Nc1nnc(Cc2cccc(Br)c2)s1`: -8.3%; for `CSc1ccc(S(=O)(=O)N(CC(=O)Nc2ccc3ccccc3c2)c2ccc(C)cc2)cc1`: -2.5%. In the case of `CCOC(=O)C1=C(c2ccccc2)N(C)C(=O)NC1c1ccc2c(c1)OCO2` (stereo not drawn), the displacement was determined as 3.6%. Regarding `Cc1ccc(/C=C2\C(=O)NC(=O)N(c3cccc(Br)c3)C2=O)cc1`, the displacement was 6.3%. The same measure for `Cc1ccccc1NC(=O)c1ccc(C)c(S(=O)(=O)Nc2cccc([N+](=O)[O-])c2)c1`: -25.3%; for `O=C(CSc1nc2ccccc2n1Cc1ccccc1)N/N=C/c1cccc(O)c1`: -2.4%. The same measure for `COc1ccc(N2C(=O)NC(=O)/C(=C/c3cccc(OC)c3O)C2=O)cc1`: -4.8%. Take `COC(=O)CN(c1ccccc1C)S(=O)(=O)c1ccccc1`: the displacement was -0.9%. Turning to `CC(C)Cc1ccc(C(C)C(=O)Nc2cccc(O)c2)cc1` (stereo not drawn), the displacement turned out to be 14.9%.

Regarding `Fc1ccc(NC(=S)N2CCN(C/C=C/c3ccccc3)CC2)cc1`, the displacement was found to be 4.5%. With `COc1ccc(N2C(=O)c3ccccc3NC2c2cccc(F)c2)cc1` (stereo not drawn), the displacement worked out at 7.7%. Consider `CCN(CC)c1ccc(C=NN2CCN(Cc3ccccc3)CC2)c(O)c1`, for which the displacement is -6%. As to `Cc1cccc(-n2c(SCCc3ccccc3)nc3ccccc3c2=O)c1`, the displacement was -7.2%.

The values are drawn from PubChem BioAssay AID1240 (Sanford-Burnham Center for Chemical Genomics, 2008).
